The densities may have been worked out from excess volumes.
Experiment: xn = mol fraction of the nth substance listed
Settings: 100 kPa

Compound `CCCC[N+](CCCC)(CCCC)CCCC.[Cl-]` + O has a mass density (293.2 K, x1 = 0.039) of 988.3 kg/m3, a mass density (293.2 K, x1 = 0.1) of 971.1 kg/m3 and a mass density (293.2 K, x1 = 0.15) of 961.4 kg/m3. The mass density (293.2 K, x1 = 0.201) was 955.7 kg/m3, the mass density (293.2 K, x1 = 0.22) was 954.3 kg/m3 and the mass density (298.2 K, x1 = 0.039) was 984.9 kg/m3. It also gave a mass density (298.2 K, x1 = 0.1) of 967.6 kg/m3, a mass density (298.2 K, x1 = 0.15) of 958.1 kg/m3 and a mass density (298.2 K, x1 = 0.22) of 951.1 kg/m3. For the same compound, the mass density (303.2 K, x1 = 0.039) was 981.5 kg/m3, the mass density (303.2 K, x1 = 0.1) was 964.1 kg/m3 and the mass density (303.2 K, x1 = 0.15) was 954.8 kg/m3. For the same compound, the mass density (303.2 K, x1 = 0.201) was 949.3 kg/m3, the mass density (303.2 K, x1 = 0.22) was 947.9 kg/m3 and the mass density (308.2 K, x1 = 0.1) was 960.6 kg/m3. It also gave a mass density (308.2 K, x1 = 0.201) of 946 kg/m3, a mass density (308.2 K, x1 = 0.22) of 944.7 kg/m3 and a mass density (313.2 K, x1 = 0.039) of 974.6 kg/m3. It also gave a mass density (313.2 K, x1 = 0.1) of 957 kg/m3, a mass density (313.2 K, x1 = 0.15) of 948 kg/m3 and a mass density (313.2 K, x1 = 0.22) of 941.5 kg/m3. The mass density (318.2 K, x1 = 0.039) was 971.1 kg/m3, the mass density (318.2 K, x1 = 0.1) was 953.5 kg/m3 and the mass density (318.2 K, x1 = 0.15) was 944.6 kg/m3. The mass density (318.2 K, x1 = 0.201) was 939.5 kg/m3, the mass density (318.2 K, x1 = 0.22) was 938.2 kg/m3 and the mass density (323.2 K, x1 = 0.1) was 949.9 kg/m3. For the same compound, the mass density (323.2 K, x1 = 0.15) was 941.2 kg/m3, the mass density (323.2 K, x1 = 0.201) was 936.2 kg/m3 and the mass density (323.2 K, x1 = 0.22) was 935 kg/m3. The mass density (328.2 K, x1 = 0.039) was 963.9 kg/m3, the mass density (328.2 K, x1 = 0.1) was 946.3 kg/m3 and the mass density (328.2 K, x1 = 0.15) was 937.8 kg/m3. For the same compound, the mass density (328.2 K, x1 = 0.201) was 933 kg/m3, the mass density (333.2 K, x1 = 0.039) was 960.3 kg/m3 and the mass density (333.2 K, x1 = 0.1) was 942.7 kg/m3. It also gave a mass density (333.2 K, x1 = 0.15) of 934.4 kg/m3, a mass density (333.2 K, x1 = 0.22) of 928.5 kg/m3 and a mass density (338.2 K, x1 = 0.039) of 956.6 kg/m3. The mass density (338.2 K, x1 = 0.1) was 939 kg/m3, the mass density (338.2 K, x1 = 0.15) was 930.9 kg/m3 and the mass density (338.2 K, x1 = 0.22) was 925.3 kg/m3. The mass density (343.2 K, x1 = 0.039) was 952.9 kg/m3, the mass density (343.2 K, x1 = 0.1) was 935.4 kg/m3 and the mass density (343.2 K, x1 = 0.201) was 923.1 kg/m3. For the same compound, the mass density (343.2 K, x1 = 0.22) was 922 kg/m3, the mass density (348.2 K, x1 = 0.039) was 949.2 kg/m3 and the mass density (348.2 K, x1 = 0.15) was 924 kg/m3. For the same compound, the mass density (348.2 K, x1 = 0.201) was 919.8 kg/m3 and the mass density (348.2 K, x1 = 0.22) was 918.7 kg/m3.
Compound `C[N+](C)(C)CCO.[Br-]` + O has a mass density (293.2 K, x1 = 0.05) of 1114.9 kg/m3, a mass density (293.2 K, x1 = 0.1) of 1186.9 kg/m3 and a mass density (293.2 K, x1 = 0.149) of 1231.2 kg/m3. It also gave a mass density (293.2 K, x1 = 0.199) of 1266.5 kg/m3, a mass density (293.2 K, x1 = 0.3) of 1314.2 kg/m3 and a mass density (298.2 K, x1 = 0.05) of 1112.9 kg/m3. The mass density (298.2 K, x1 = 0.1) was 1184.5 kg/m3, the mass density (298.2 K, x1 = 0.199) was 1263.8 kg/m3 and the mass density (298.2 K, x1 = 0.248) was 1290 kg/m3. It also gave a mass density (298.2 K, x1 = 0.3) of 1311.3 kg/m3, a mass density (303.2 K, x1 = 0.1) of 1182.1 kg/m3 and a mass density (303.2 K, x1 = 0.199) of 1261.1 kg/m3. For the same compound, the mass density (303.2 K, x1 = 0.248) was 1287.1 kg/m3, the mass density (303.2 K, x1 = 0.3) was 1308.4 kg/m3 and the mass density (308.2 K, x1 = 0.05) was 1108.6 kg/m3. The mass density (308.2 K, x1 = 0.199) was 1258.3 kg/m3, the mass density (308.2 K, x1 = 0.3) was 1305.5 kg/m3 and the mass density (313.2 K, x1 = 0.05) was 1106.2 kg/m3. It also gave a mass density (313.2 K, x1 = 0.149) of 1220.7 kg/m3, a mass density (313.2 K, x1 = 0.199) of 1255.5 kg/m3 and a mass density (313.2 K, x1 = 0.248) of 1281.5 kg/m3. It also gave a mass density (313.2 K, x1 = 0.3) of 1302.7 kg/m3, a mass density (318.2 K, x1 = 0.05) of 1103.8 kg/m3 and a mass density (318.2 K, x1 = 0.1) of 1174.4 kg/m3. The mass density (318.2 K, x1 = 0.149) was 1218 kg/m3, the mass density (318.2 K, x1 = 0.199) was 1252.7 kg/m3 and the mass density (318.2 K, x1 = 0.248) was 1278.7 kg/m3. For the same compound, the mass density (318.2 K, x1 = 0.3) was 1299.8 kg/m3, the mass density (323.2 K, x1 = 0.1) was 1171.7 kg/m3 and the mass density (323.2 K, x1 = 0.149) was 1215.2 kg/m3. The mass density (323.2 K, x1 = 0.199) was 1249.9 kg/m3, the mass density (323.2 K, x1 = 0.248) was 1275.8 kg/m3 and the mass density (323.2 K, x1 = 0.3) was 1296.9 kg/m3. The mass density (328.2 K, x1 = 0.05) was 1098.7 kg/m3, the mass density (328.2 K, x1 = 0.1) was 1169 kg/m3 and the mass density (328.2 K, x1 = 0.199) was 1247.1 kg/m3. The mass density (328.2 K, x1 = 0.248) was 1273 kg/m3, the mass density (328.2 K, x1 = 0.3) was 1294 kg/m3 and the mass density (333.2 K, x1 = 0.05) was 1096 kg/m3. It also gave a mass density (333.2 K, x1 = 0.149) of 1209.5 kg/m3, a mass density (333.2 K, x1 = 0.199) of 1244.2 kg/m3 and a mass density (333.2 K, x1 = 0.248) of 1270.1 kg/m3. For the same compound, the mass density (333.2 K, x1 = 0.3) was 1291 kg/m3, the mass density (338.2 K, x1 = 0.05) was 1093.1 kg/m3 and the mass density (338.2 K, x1 = 0.1) was 1163.4 kg/m3. The mass density (338.2 K, x1 = 0.149) was 1206.7 kg/m3, the mass density (338.2 K, x1 = 0.199) was 1241.3 kg/m3 and the mass density (343.2 K, x1 = 0.1) was 1160.5 kg/m3. The mass density (343.2 K, x1 = 0.149) was 1203.8 kg/m3, the mass density (343.2 K, x1 = 0.199) was 1238.4 kg/m3 and the mass density (343.2 K, x1 = 0.248) was 1264.3 kg/m3. It also gave a mass density (343.2 K, x1 = 0.3) of 1285.2 kg/m3, a mass density (348.2 K, x1 = 0.05) of 1087.4 kg/m3 and a mass density (348.2 K, x1 = 0.149) of 1200.9 kg/m3. For the same compound, the mass density (348.2 K, x1 = 0.248) was 1261.4 kg/m3 and the mass density (348.2 K, x1 = 0.3) was 1282.3 kg/m3.
Compound `CC[N+](CC)(CC)CC.[Cl-]` + O has a mass density (293.2 K, x1 = 0.051) of 1009.2 kg/m3, a mass density (293.2 K, x1 = 0.151) of 1033.1 kg/m3 and a mass density (298.2 K, x1 = 0.102) of 1021.5 kg/m3. For the same compound, the mass density (298.2 K, x1 = 0.151) was 1030 kg/m3, the mass density (303.2 K, x1 = 0.051) was 1004.6 kg/m3 and the mass density (303.2 K, x1 = 0.102) was 1018.5 kg/m3. The mass density (308.2 K, x1 = 0.051) was 1002.2 kg/m3, the mass density (308.2 K, x1 = 0.102) was 1015.5 kg/m3 and the mass density (308.2 K, x1 = 0.151) was 1023.7 kg/m3. For the same compound, the mass density (313.2 K, x1 = 0.051) was 999.7 kg/m3, the mass density (313.2 K, x1 = 0.102) was 1012.5 kg/m3 and the mass density (318.2 K, x1 = 0.051) was 997.1 kg/m3. It also gave a mass density (318.2 K, x1 = 0.102) of 1009.4 kg/m3, a mass density (318.2 K, x1 = 0.151) of 1017.3 kg/m3 and a mass density (323.2 K, x1 = 0.051) of 994.4 kg/m3. It also gave a mass density (323.2 K, x1 = 0.102) of 1006.3 kg/m3, a mass density (323.2 K, x1 = 0.151) of 1014.1 kg/m3 and a mass density (328.2 K, x1 = 0.051) of 991.6 kg/m3. For the same compound, the mass density (328.2 K, x1 = 0.102) was 1003.2 kg/m3, the mass density (328.2 K, x1 = 0.151) was 1010.8 kg/m3 and the mass density (333.2 K, x1 = 0.051) was 988.7 kg/m3. It also gave a mass density (333.2 K, x1 = 0.151) of 1007.5 kg/m3, a mass density (338.2 K, x1 = 0.051) of 985.8 kg/m3 and a mass density (338.2 K, x1 = 0.102) of 996.8 kg/m3. It also gave a mass density (338.2 K, x1 = 0.151) of 1004.2 kg/m3, a mass density (343.2 K, x1 = 0.051) of 982.8 kg/m3 and a mass density (343.2 K, x1 = 0.102) of 993.5 kg/m3. The mass density (343.2 K, x1 = 0.151) was 1000.9 kg/m3, the mass density (348.2 K, x1 = 0.051) was 979.8 kg/m3 and the mass density (348.2 K, x1 = 0.151) was 997.8 kg/m3.

From a compilation of properties of binary mixtures (doi:10.1016/j.molliq.2019.112281)
